# Reference: publication PMC4336329 (PLoS ONE, 2015)
# About 14,000 (4.5%) of roughly 310,000 compounds showed an effect of 50% or more. The effect is printed as a negative number. This is one part of the list.
# Target: human ether-à-go-go-related gene (hERG) potassium channel (human, UniProt Q12809)
# Assay: primary screen, population patch clamp on CHO cells stably expressing hERG
# 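Note: peak tail current of the secondary pulse compared with the same well before compound.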
# Sequence of human ether-à-go-go-related gene (hERG) potassium channel (Q12809 whole entry, looked up): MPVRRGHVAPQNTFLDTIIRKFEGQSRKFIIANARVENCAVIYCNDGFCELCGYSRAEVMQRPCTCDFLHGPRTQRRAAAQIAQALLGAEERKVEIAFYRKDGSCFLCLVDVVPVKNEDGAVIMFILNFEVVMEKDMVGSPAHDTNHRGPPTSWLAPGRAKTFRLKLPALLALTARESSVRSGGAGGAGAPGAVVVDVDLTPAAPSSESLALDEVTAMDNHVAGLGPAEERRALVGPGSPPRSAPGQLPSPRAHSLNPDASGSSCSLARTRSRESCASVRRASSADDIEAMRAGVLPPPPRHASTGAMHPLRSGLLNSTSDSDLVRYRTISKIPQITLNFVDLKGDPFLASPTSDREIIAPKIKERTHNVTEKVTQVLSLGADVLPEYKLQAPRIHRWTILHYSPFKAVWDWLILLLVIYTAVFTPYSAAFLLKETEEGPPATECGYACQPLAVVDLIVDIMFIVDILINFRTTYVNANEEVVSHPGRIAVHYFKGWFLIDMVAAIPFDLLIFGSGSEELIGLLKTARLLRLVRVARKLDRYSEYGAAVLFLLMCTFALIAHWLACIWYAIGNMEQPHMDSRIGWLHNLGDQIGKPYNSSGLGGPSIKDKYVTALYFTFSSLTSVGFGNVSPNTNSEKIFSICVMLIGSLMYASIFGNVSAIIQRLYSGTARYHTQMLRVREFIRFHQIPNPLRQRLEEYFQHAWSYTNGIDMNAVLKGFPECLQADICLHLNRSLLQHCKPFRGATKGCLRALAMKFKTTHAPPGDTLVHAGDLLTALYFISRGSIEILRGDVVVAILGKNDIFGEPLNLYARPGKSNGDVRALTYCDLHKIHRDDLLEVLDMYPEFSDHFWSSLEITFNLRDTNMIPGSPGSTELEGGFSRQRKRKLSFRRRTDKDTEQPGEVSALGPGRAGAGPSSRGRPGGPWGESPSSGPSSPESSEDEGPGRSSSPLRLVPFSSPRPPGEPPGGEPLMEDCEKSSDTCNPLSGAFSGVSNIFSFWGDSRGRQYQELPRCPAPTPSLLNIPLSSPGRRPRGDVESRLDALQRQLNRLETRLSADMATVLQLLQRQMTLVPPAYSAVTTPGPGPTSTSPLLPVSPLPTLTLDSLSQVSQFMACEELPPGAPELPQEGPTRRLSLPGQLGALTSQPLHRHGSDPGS
row,SMILES,"hERG current change (%, negative = inhibition) at 10uM [%]"
1,N#Cc1cccc2c1-c1ccccc1/C2=N/NC(N)=O,7.49
2,CCCCN(C(=O)c1cccc(S(=O)(=O)N2CCCCC2)c1)C1CCS(=O)(=O)C1 (centres unmarked),-52.1
3,CC1CN(C(=O)COC(=O)c2ccc(F)cc2Cl)CC(C)O1 (centres unmarked),2.56
4,Cc1cc(C)n(-c2nc3ccccc3n3cnnc23)n1,-16.1
5,O=C(c1ccc(NC2=NC3CS(=O)(=O)CC3S2)cc1)N1CCN(c2ccc(F)cc2)CC1 (centres unmarked),6.4
6,O=C(NCc1cccc(F)c1)c1ccc2nc(N3CCOCC3)sc2c1,-10.7
7,CCCC(=O)NCCCc1nc2ccccc2n1C(C)C,-14.3
8,O=C(NCc1ccncc1)C12CC3CC(CC(Cl)(C3)C1)C2,1.83
9,CCOC(=O)C1CCCN(C(=O)c2cc3cc(OC)c(OC)cc3[nH]2)C1 (centres unmarked),14.1
10,Cc1cc(NC(=O)CN2C(=O)[C@@H]3[C@H](C2=O)[C@@H]2C[C@H]3C(Br)C2Br)no1 (some centres unmarked),7.77
11,CC(CNC(=O)CN1C(=O)C(=O)N(C2CCCC2)C1=O)c1ccccc1 (centres unmarked),-3.6
12,Cc1ccc(N2CC(O)=C(c3nc4ccccc4c(=O)[nH]3)C2=N)cc1C,1.33
13,COc1cccc(-c2nc(-c3ccc(NC(=O)c4cccs4)cc3)no2)c1,14.1
14,COc1cc(OC)c(S(=O)(=O)NCc2ccco2)cc1S(=O)(=O)NCc1ccco1,-13.5
15,CC(/C=N\NC(=O)c1ccc2c(c1)OCO2)c1ccccc1 (centres unmarked),11.4
16,CC(=O)Nc1ccc(S(=O)(=O)Nc2nc3ccccc3nc2Nc2ccc(S(N)(=O)=O)cc2)cc1,-3.54
17,O=C(NC(=S)Nc1nc(-c2ccccc2)cs1)c1cccs1,18.1
18,Cc1c(S(=O)(=O)N2CCc3ccccc3C2)c(=O)n(C)c(=O)n1C,-4.24
19,Cc1cccc(C(=O)N2CCCCCC2)c1,2.61
20,CS(=O)(=O)c1ccc(C(=O)N2CCC(C(=O)O)(c3ccccc3)CC2)cc1,35.2
21,C[N+](C)(C)CC(=O)N/N=C/c1c2ccccc2cc2ccccc12.[Cl-],-6.73
22,CCOC(=O)[C@@H]1[C@H]2COc3ccc(Br)cc3[C@@H]2N2C(=O)N(c3ccccc3)C(=O)[C@@]12C,-5.89

row,SMILES,"hERG current change (%, negative = inhibition) at 10uM [%]"
1,COc1cc(NC(=O)c2ccc(C(C)(C)C)cc2)c(OC)cc1NC(=O)CN1CCCCC1,15.5
2,COC(=O)Nc1ccc(SCC(=O)c2cccc([N+](=O)[O-])c2)cc1,-4.15
3,CCCCOc1ccc(CSc2nnc(C)n2N)cc1[N+](=O)[O-],-31.5
4,CC(C)CCNC(=O)[C@H](CSCc1ccccc1)N1Cc2ccccc2C1=O,-61
5,CC1CCN(S(=O)(=O)c2ccc(S(=O)(=O)N3CCC4(CC3)OCCO4)cc2)CC1,-1.06
6,CC(=O)N1N=C(c2cccs2)CC1c1ccco1 (centres unmarked),9.83
7,N#Cc1cc2nc([O-])c([O-])nc2cc1[N+](=O)[O-].[Na+],17.8
8,Cn1cccc1/C=C1\SC(=O)N(CC(=O)Nc2ccc(Cl)cc2)C1=O,22.1
9,CCOc1ccccc1N1CCN(Cc2cccc(OC)c2O)CC1,-25.8
10,COc1ccc(CN(C2CCCC2)S(=O)(=O)c2ccc(-n3cnnn3)c(OC)c2)cc1OC,-28.1
11,CCOC(=O)c1ccc(NC(=O)CNS(=O)(=O)c2ccccc2)cc1,8.6
12,Cc1c(C(=O)Nc2ccc(F)cc2)nnn1-c1cccc(C(F)(F)F)c1,1.52
13,CC(=O)Nc1cccc(/C(C)=N/NC(=O)c2c(-c3ccccc3Cl)noc2C)c1,-2.37
14,COc1ccc(CNC(=O)C2Cc3ccccc3CN2C(=O)c2ccco2)cc1 (centres unmarked),-49
15,COc1ccc(Cl)cc1S(=O)(=O)N1CCN(c2ccc(F)cc2)CC1,-23.1
16,CSc1c(CC(=O)Nc2ccc(F)cc2)n(Cc2ccccc2)c2ccccc12,-7.56
17,COc1ccc(C)cc1C(=O)CCC(=O)Nc1ccccc1N1CCOCC1,1.65
18,CC1(C)Cc2ccccc2C(=C(C#N)C#N)N1,-2.25
19,Cc1ccc(OCC(=O)Nc2ccc3c(c2)OCO3)c(C)c1,3.47
20,CCCNc1nc(C)cc(-c2cc(-c3ccc(Cl)cc3)on2)n1,9.18
21,CCc1nnc(NC(=O)c2ccc(-c3ccccc3Cl)o2)s1,4.85
22,CNCCCOc1cc(C)cc(C)c1C.O=C(O)C(=O)O,7.23
